In the supplement of paper PMC12632987:
In all, about 4,500 sequences were measured (“median log2 fold change of GCK-ALFA target abundance (FLAG IP / Myc IP barcode read proportion)”: median about 0.078, lowest 2% from about -0.6 on). The list shows a part of the results.

B1: GBRAP_160_4830 (protein)
chain: SEKLEKFKKFIDEEFEEAIEMMKGQTTEERAAIVAVTFGEIIMEGEELGVFSDELEDFIDEVEDEVVATILANPDLTDEELEELLNEAREKIIEALEKDS
B2: GBRAP_128_3473 (protein)
chain: SVEEVVKETEKIMEEIIKADLEEARKLAEELFARLSTKDLESVEAAVEVIESHLPKLSAEKLEILAEVADAARPAFDPEKAALLADLASTALLLAEEKEE
B3: GBRAP_128_3321 (protein)
chain: MDKEKLAEAKKLAEEMVKASIEEAKELTKKLVALLATATPEEREEIAEIFKEEMKKLSAEKLEAVADTLREQMPTLDPETANVVADLEVEALNEAEEKEE
B4: GBRAP_160_4142 (protein)
chain: KEELEKLIKEIREIAEEAIELIKDSSLEEAKTIAKVALGEIELLVSTNPAVSEETEEKVGEITREAEEQLDEREDATNEEIIALLREAAEKIIEELEKEL
B5: GBRAP_125_3013 (protein)
chain: GLEAAVAALERLGRALGLSEDEVAELGREARAHGVKQALIALFLAEGWEENAELAAQLTEAEAAAALARLVAALDANPDLTPEEVRALALAILREAVAAS
B6: GBRAP_117_2570 (protein)
chain: SELREKAKKEVEEHVERLAKRLEEMKSLSPEEQEKARAEMLEETYELAKKLIEELGKEETLELWEEAIAPLDAETYFEISLLWEDAFNRIKEEEEKEKKE
B7: GBRAP_160_4867 (protein)
chain: SEKLARALAIVQEARDEALAAIAEAPASDRAAIAAAIAGEAIQQLIEEGLVSDELEDKLMAIVDALRAALEANADASVAEWQALVQAAFDAMEAAIKEMM
B8: GBRAP_128_3421 (protein)
chain: SMEEKVEKVKELLEEMLTADPATQKELAREIMQLILESDLETAEAMVEVILEMLPKFTAEQLDILADAGREQLSKFSPEKQELVAEVIVEALNLAEELEE
B9: GBRAP_184_5023 (protein)
chain: KILEEELTVSNVEEARAKLAEVAERAKASKADLILLIKVENPTEEILRAIVEGLGAIKAAGYAEKITVGIDADLTEEQIDFVLDGFDAAGVNVTVAISEK
B10: GBRAP_160_4552 (protein)
chain: SPFVERLVAYARERIDEALELGKEVNPEDALAVLRVAAGDVIMEVMEDPRATDEMEDAVAEVMDALVEDFEARADAPMEEWRALAEEHLAELREKLEALA
B11: GBRAP_35_5568 (protein)
chain: SFDETAADMMVNTIEALTEAVDDIDPKTLLTITKQITEAAKKLVEEIKNNKKALEKILEALEKLLKALEKRGLDNPDIKAAAEAVKEAIEKAKEAIKKAE
B12: GBRAP_184_5246 (protein)
chain: KVIDEEITASTKEEVIEKLDAVRDKAKAEGAKVDLILTLTNATKELVETAMAKIKELRAEGLLNRVEVIIDNYEDEETLELAFDLAHEVGVDALAYDEKE
B13: GBRAP_52_5875 (protein)
chain: MLEEALKLLEEAVKAEKAGKEEELEKILKEIVEKFSEETILEAVKELAEKVLGKSLEEAEAFFRTVERLADILLEAGKSEEIASLMEAIAGATLYKVEQK
B14: GBRAP_160_4243 (protein)
chain: SERLEEIREDIEEEAEVALEALKEVPKSQWGAVLRAMAGDIVQIVIEDPNMTEETEEEVDELADELVARLLAAKDASPEELERLLREGVERIIEKIEESL
B15: GBRAP_39_5661 (protein)
chain: EEEEENELLFSYYLALAVGEQIKKGISDEEMIEEGKKLLTKIAEEHPEIKEDIEKLLKKVDEGNEEVGLAAYGIALEYEKGTPIEEIKEHIKSLLKYVDK
B16: GBRAP_42_5723 (protein)
chain: MYLVNLEVVVATREELERAIAIWRERNARYRKEKGIIIRLTIAAPEEAAELAAEAEAESAELAKEADKELDWVVVAASADEVGDAIDIAVDLALEERKEE
B17: GBRAP_95_7082 (protein)
chain: EEDLETLEDLAQTAIDLYEAGFEEQAARAAKAAAEELEELGYKVADKELLTKLLTYAADLAPKYFDEEEIERWLKIAEATGAPQSIIDALRAALAAKKAA
B18: GBRAP_14_3870 (protein)
chain: KEEVLKIIEEAIEEMEEEMIELLPEEAERIKEVAEEIKKKAKEVIEEEDDVEKIMEKIKEYSLKLVEEAFADLPPEDRAALLATADNEFAEADLEIEEKL
B19: GBRAP_39_5641 (protein)
chain: SEEEEAEETYEYLEALGAKLLVDEKISLEEALEKTLAYALEKFADNPELQALINELKELAEKGDEMDKLALVGALSLAELGKSDEEIKEHLELLIKYLKS
B20: GBRAP_39_5676 (protein)
chain: EEEEENEDVVSYLEALAAGYLYTTGLSEEEAYERAKKILEAYAKEHPELAPLIKELIEIADEKGEEAKLVLIGIAVKIEQGTPKEEIKKDIELAIAYFKK
B21: GBRAP_84_7000 (protein)
chain: MREEEIEKLVDYLAENSSLELLKKLYVYLLLKNDNKGATRLLSYLLEKDPEAAAEALDKATEAALEEKEEEVKKELLELAKKEGEEIYKKVKKLIELLEE
B22: GBRAP_160_4445 (protein)
chain: SETLERLKKLVEETREEIKKLIEGETHENRVVIVDVGFGELLLEFVEDENVSDELEDEVAKIVDETVEYLKNNPDLTEEEIKKLIDETAEKIKEAIEKHL
B23: GBRAP_160_4442 (protein)
chain: SEKLEKALKRIDEEAEFVKELVDEVSTEQFAKFLDAELGSVILELLEEGYISEETADKIFEIIDEAVATLLANPDMSKEEKKALIDETVEKIKEVIKEDF
B24: GBRAP_48_5832 (protein)
chain: MEFDEELLKKLVEETVEEMKEVYEEAKEEGLSDEEILKMIRALLGDLALELEEAGYTKAADYLLKPENREEVAKKLKELFDEGKYEEAKEYLFNKLKEVE
B25: GBRAP_95_7041 (protein)
chain: EDLELAVESTAEVVEALVELGDREAARKAARRLLELLAEADPDKVRISLSEETARLIVEVARETYSREEAIELLEKLAQAATDERVKRLFLEAAEELRKE
B26: GBRAP_14_3805 (protein)
chain: EEERKKAVEEGVEEIKEIIEEILEDAPEEVREKVLELVEEAKKKIIEEKLNPDEVDELTKETVEKIKEIMEDLPQEVRDKVLAAVSTGFGEIILEIEELE
B27: GBRAP_117_2583 (protein)
chain: MEEKEKVKKELRETIREAGERVRAARSLSPEERERVLEEVRRRIREAVRRALEVLSEEEVEEIVEEELLSFDAEVYFEISLFVEEAIEEIREERRREAEE
B28: GBRAP_186_5381 (protein)
chain: EEELEEELDRIIDELEAQGYRVIVSYLEGLSLEETKEAMRRDAEAVAALSKETGEKWALVVVIRTKAEDVEPLREFAEELNKEYLEKSGVVVKAAIGSSD
B29: GBRAP_26_5479 (protein)
chain: IEELVRELLERLRALLEELLDPETAAAALAEATTIIIEAAERMEENKDNPELLEKIVEEAVEELREELKRLGVSEEKAEKIVELAREGLEEIREKILEES

target: GABARAP, O95166; assay: median log2 fold change of GCK-ALFA target abundance (FLAG IP / Myc IP barcode read proportion) (log2 ratio); each designed protein is fused to an ALFA-tag nanobody in HEK293 cells to bring the named protein to FLAG-tagged glucokinase (GCK); Myc marks an untargeted standard; higher = target protein stabilised (more abundant); conditions: target protein: 3xFLAG-MCP-GCK-ALFA reporter; HEK293 landing pad (RPLP)
Outline: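 An ALFA-nanobody-fused binder library was recombined into HEK293 landing-pad cells and induced with 2 μg mL^−1 doxycycline. Cells were transfected with a plasmid expressing a FLAG-tagged target and a Myc-tagged standard. After 48 h, lysates underwent anti-FLAG and anti-Myc immunoprecipitation, and circular RNA barcodes were reverse transcribed, amplified and sequenced. Target abundance is the per-binder median log2 ratio of FLAG to Myc barcode read proportions. Barcodes needed ≥10^−7 proportion in both replicates, binders ≥3 barcodes per replicate, and a 10^−6 pseudocount was added; the two replicates were pooled.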

Sequence of GABARAP, O95166 (O95166 whole entry, the tested form may be a part): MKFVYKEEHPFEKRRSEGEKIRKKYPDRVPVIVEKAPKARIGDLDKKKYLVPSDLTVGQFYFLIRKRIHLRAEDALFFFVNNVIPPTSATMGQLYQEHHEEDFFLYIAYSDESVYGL

Going from B1 to B2, the “median log2 fold change” value rises from -0.286 to 0.0955.

B3 and B4 are within 0.2 log units of each other in “median log2 fold change” value: 0.43 for the first, 0.259 for the second.

First: B5
Second: B6
The “median log2 fold change” value of the first is lower: 0.196 for the first, 0.429 for the second.

Compared with B7, B8 is lower in “median log2 fold change” value: 0.176 for the first, -0.0553 for the second.

Going from B9 to B10, the “median log2 fold change” value falls from 0.0771 to -0.389.

Going from B11 to B12, the “median log2 fold change” value rises from 0.0635 to 0.283.

Compared with B13, B14 is lower in “median log2 fold change” value: 0.0947 for the first, -0.152 for the second.

B15 and B16 are within 0.2 log units of each other in “median log2 fold change” value: 0.183 for the first, 0.104 for the second.

B17 and B18 are within 0.2 log units of each other in “median log2 fold change” value: 0.268 for the first, 0.223 for the second.

B19 and B20 are within 0.2 log units of each other in “median log2 fold change” value: 0.104 for the first, 0.032 for the second.

Compared with B21, B22 is lower in “median log2 fold change” value: 0.0601 for the first, -0.393 for the second.

B23 and B24 are within 0.2 log units of each other in “median log2 fold change” value: 0.0293 for the first, 0.0934 for the second.

B25 and B26 are within 0.2 log units of each other in “median log2 fold change” value: 0.114 for the first, 0.189 for the second.

B27 and B28 are within 0.2 log units of each other in “median log2 fold change” value: 0.00718 for the first, 0.0301 for the second.

B29 was tested, and the “median log2 fold change” value was 0.237.
